Source: PubChem BioAssay AID1345083 (National Center for Advancing Translational Sciences (NCATS), 2018)
Where “and” joins values, the source holds several entries; their conditions need not be identical. Equal entries are not always repeated. Among all 94,000 compounds or so, about 6,200 (6.6%) were called active. This list was built around the results that the source calls inconclusive (neither active nor inactive); the mix of calls is not that of the screen. The call rests on the fitted dose curve; in most records, active means well fitted inhibition curve with a large enough effect; inconclusive means small, poorly fitted or top-dose-only effect; inactive means flat fitted curve, though single readings scatter. Potencies of inconclusive entries are doubtful fits and often do not repeat. A structure can be active in one record and inactive in another.

test: Cytotoxic Profiling in HEK 293 Cell Line of Diverse Libraries Using Quantitative High-Throughput Screening; conditions: HEK 293 viability, ATP luminescence (CellTiter-Glo), 48-72 h; activity change, negative = cytotoxicity: at 115 µM (top of the series) unless noted; series mostly up to 115 µM; further: nearly all actives have a fitted effect of over 60% in size
Procedure, shortened: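 250 HEK 293 cells/well; compound by pintool; incubated 48 or 72 hr at 37 degree Celsius; CellTiter-Glo added, 10 min RT, luminescence imaged.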
On the % scale 0 is the no-effect control and ±100 the full control effect; potency means the concentration at half of the fitted maximal effect; tags describe the fitted curve by direction and shape.

Structure (SMILES) | Potency | activity change, negative = cytotoxicity | outcome
N#Cc1cccc(NC(=O)O[C@@H]2CO[C@H]3[C@@H]2OC[C@@H]3Nc2nccc(-c3ccccc3)n2)c1 | active: 22.4 µM |  | 
Cc1ccc(CNC(=O)C2(c3ccc(NC(=O)C(C)C)cc3)CCC2)cc1C | inconclusive: 89.1 µM [inhibitor, single point] |  | 
COc1ncccc1-c1nc(N2CCOCC2)cc2c1CN(CC(F)(F)F)C2=O | inconclusive: 100 µM [inhibitor, partial curve] |  | 
FC(F)(F)c1cccc(C2=NOC3(CCN(Cc4ccsc4)CC3)C2)c1 | inconclusive: 50.1 µM [inhibitor, partial curve, poor fit] |  | 
O=C1NC2(CCN([S+](=O)([O-])c3cccc(C(F)(F)F)c3)C2)COc2ccccc21 (stereo not given) | inconclusive: 44.7 µM [inhibitor, partial curve] |  | 
Cc1cn2nnc(C(=O)NCc3ccc4c(c3)OCO4)c2c(=O)[nH]1 |  | inactive: 7.09% | 
O=C(NCc1nnc2cc(-c3nc(C4CC4)no3)ccn12)c1ccccc1Cl | inconclusive: 39.8 µM [inhibitor, partial curve, poor fit] |  | 
Cc1cccc(NC(=O)N2CCC(CCNC(=O)c3cc(F)ccc3F)CC2)c1 | inconclusive: 100 µM [inhibitor, single point] |  | 
Cc1nc(-c2cn(C3CCCN(C(=O)COc4ccc(F)cc4)C3)nn2)no1 (stereo not given) |  | inactive: -5.62% | 
CCn1cc(S(=O)(=O)N2CCC3(CCC3N3CCOCC3)CC2)cn1 (stereo not given) |  | inactive: 2.83% | 
COc1cc(=O)n2c(c1C(=O)Nc1cc(Cl)ccc1Cl)CCCC2 | inconclusive: 39.8 µM [inhibitor, full curve] |  | 
O=C(NC1C[C@H]2CC[C@@H](C1)N2C(=O)Nc1ccc2c(c1)OCCO2)c1ccc(F)cc1 (stereo not given in full) |  |  | inactive
COc1ccc(-c2[nH]nc3ncc(C(=O)N4CCC(c5ccccc5)CC4)nc23)c(C)c1 | inconclusive: 63.1 µM [inhibitor, partial curve, poor fit] |  | 
COCC1CN(C2CCC2)CC12CCN(C(=O)c1ccsc1)CC2 (stereo not given) | inconclusive: 50.1 µM [inhibitor, partial curve, poor fit] |  | 
Cc1oc(-c2cccc(C(F)(F)F)c2)nc1CN1CCN(C)C(CCO)C1 (stereo not given) | inconclusive: 89.1 µM [inhibitor, partial curve, poor fit] |  | 
CC1(C(=O)NCc2ccc3c(c2)OCO3)CCc2cnc(NCc3ccccc3)nc21 (stereo not given) | active: 70.8 µM |  | 
Cc1nn(-c2ccccc2)c2c1C(C(C)C)N(C1CCN(C(=O)C3CCCC3)C1)C2=O (stereo not given) | inconclusive: 39.8 µM [inhibitor, full curve, poor fit] |  | 
O=C1Nc2ccccc2CC12CN([S+](=O)([O-])c1cccs1)C2 | inconclusive: 112 µM [inhibitor, single point] |  | 
COc1ccccc1C(=O)N1CC(Oc2ccc(-c3nc(C)no3)cc2)C1 | inconclusive: 79.4 µM [inhibitor, single point] |  | 
CN(C)c1cccc(-c2cnc(NC(=O)C3CCOCC3)c3c2CCO3)c1 | inconclusive: 50.1 µM [inhibitor, partial curve, poor fit] |  | 
COc1cccc(CN2CCCC(NC(=O)c3cn4ccsc4n3)C2)c1 (stereo not given) | inconclusive: 89.1 µM [inhibitor, single point] |  | 
COc1ccc(F)cc1-c1cccc(C(=O)NCC(=O)NCc2ccc3c(c2)OCO3)c1 | active: 50.1 µM |  | 

Structure (SMILES) | Potency | activity change, negative = cytotoxicity | outcome
O=C1CC(c2ccccc2)N(C(=O)CNC(=O)NCc2ccc(F)cc2)CCCCCCN1 (stereo not given) |  |  | inactive
CN1CC(=O)N(C2CCCNCC2)Cc2c1ncnc2N1CCN(c2ncccn2)CC1 (stereo not given) |  |  | inactive
N#Cc1cccc(CN2CCC(c3nc4ccc(F)cc4c(=O)[nH]3)CC2)c1 | inactive and active: 22.4 µM |  | 
O=C(c1cccc(F)c1)N1CCCC(Cc2noc(-c3ccccc3)n2)C1 (stereo not given) | inconclusive: 22.4 µM [inhibitor, full curve, poor fit] |  | 
Fc1ccc(CN2Cc3[nH]cnc3C[C@H]2c2nc(-c3ccccc3)no2)cc1 | active: 100 µM |  | 
O=C1COc2ccc(-c3cc(F)cc(F)c3)nc2CN1Cc1ccccc1F | active: 89.1 µM |  | 
COc1cccc(-c2ccc(C(=O)N3CCC(NC(=O)c4ccc(C(F)(F)F)cc4)CC3)cc2)c1 | inconclusive: 44.7 µM [inhibitor, partial curve, poor fit] |  | 
O=C(c1ccccc1)N1CCC(c2nn(-c3ccc(Cl)cc3)c(=O)[nH]2)CC1 | inconclusive: 89.1 µM [inhibitor, single point] |  | 
Cc1ccc(OCCC2CCN(C(=O)Nc3cccc(C)c3)C2)cc1 (stereo not given) | inconclusive: 79.4 µM [inhibitor, partial curve] |  | 
Cn1cnc(S(=O)(=O)N2CCC(c3noc(-c4ccccc4)n3)C2)c1 (stereo not given) |  | inactive: -20.7% | 
O=C(NCc1nnc2c(-c3nc(C4CC4)no3)cccn12)c1cccc(Cl)c1 |  | inactive: -23% | 
COCCN1CCCC2(CCN(c3nc4c(c(=O)[nH]c(=O)n4C)n3C)C2)C1=O (stereo not given) |  |  | inactive
COc1ccc(Nc2cnc3ccc(-c4ccc(OC)c(OC)c4)nn23)cc1 | inconclusive: 28.2 µM [inhibitor, full curve] |  | 
COc1ccc(OCc2nc(C3CN(C(=O)c4sccc4C)C3)no2)cc1 | inconclusive: 56.2 µM [inhibitor, partial curve, poor fit] |  | 
Clc1ccc(-c2nnc([C@H]3CCN(Cc4ccccc4)C3)o2)cc1 | inconclusive: 100 µM [inhibitor, partial curve, poor fit] |  | 
O=C(c1ccc(C(F)(F)F)cc1)N1CCN(c2ccnc3ccnn23)CC1 | inconclusive: 28.2 µM [inhibitor, full curve, poor fit] |  | 
CNC(c1ccccc1)c1nc(-c2cccnn2)no1 (stereo not given) |  | inactive: -2.71% | 
COc1ccc(CNC(=O)c2cnc3c(c2)N(C(=O)CCc2ccccc2)CCC3)cc1OC | inconclusive: 56.2 µM [inhibitor, partial curve, poor fit] |  | 
O=C(CCC1CCCC1)NCC1CCCCC(=O)N1 (stereo not given) |  | inactive: -4.05% | 
Cc1ccc(-c2ccccc2C=O)cc1Cl | inconclusive: 79.4 µM [inhibitor, partial curve, poor fit] |  | 
O=C(Cc1ccccc1Cl)N1CCN(c2cc(C(F)(F)F)ncn2)CC1 | inconclusive: 63.1 µM [inhibitor, partial curve, poor fit] |  | 
O=C(NCc1cccc(Cl)c1)C1CCN(c2ccnc3ccnn23)CC1 | inconclusive: 50.1 µM [inhibitor, partial curve, poor fit] |  | 

Structure (SMILES) | Potency | activity change, negative = cytotoxicity | outcome
O=C(Nc1nc2c(s1)CCC2)C1CC(=O)N(c2n[nH]c3cccc(F)c23)C1 (stereo not given) | active: 44.7 µM |  | 
CCc1nn(-c2ccc(F)cc2)c(Oc2ccccc2)c1CCC(=O)NCC1CCCO1 (stereo not given) | active: 39.8 µM |  | 
CN(C)c1cccc(-c2cn(C)c(=O)n3cc(COc4ccnn4C)nc23)c1 | inconclusive: 89.1 µM [inhibitor, partial curve, poor fit] |  | 
O=C(CCc1cc2ccccc2[nH]c1=O)NCCCN1CCCC1=O | inconclusive: 89.1 µM [inhibitor, single point] |  | 
COc1ccc(-c2[nH]ncc2CN2CCCN(S(=O)(=O)c3ccccc3)CCC(=O)NCC2)cc1 | inconclusive: 56.2 µM [inhibitor, partial curve, poor fit] |  | 
COCCNc1ncc(-c2ccnc(C)c2)c2c1OCC2 | inconclusive: 141 µM [inhibitor, partial curve, poor fit] |  | 
CCCn1ncc(CNC2CC(=O)N(Cc3ccccc3C(F)(F)F)C2)c1C (stereo not given) |  | inactive: -5.4% | 
COCCNC(=O)CNC(=O)c1cccc(-c2ccc(SC)cc2)c1 | inconclusive: 79.4 µM [inhibitor, partial curve] |  | 
CN(C)c1nc2c(c(=O)[nH]1)CCN(Cc1cc(F)c(F)cc1F)CC2 |  | inactive: 2.24% | 
Cn1ncc2c(C(=O)NCc3ccc4c(c3)OCO4)cc(-c3ccccc3F)nc21 | inconclusive: 31.6 µM [inhibitor, full curve, poor fit] |  | 
Cc1nc2ccccc2n1Cc1cc(C(=O)N2CCCC2)no1 | active: 39.8 µM |  | 
O=C(C1CC=CC1)N1CCC[C@H](n2c(=O)n(Cc3cccc(F)c3)c3cccnc32)C1 | inconclusive: 50.1 µM [inhibitor, partial curve, poor fit] |  | 
COc1ccc([C@H](C)NC(=O)c2c(C)noc2-c2cccs2)cc1 | inconclusive: 28.2 µM [inhibitor, partial curve, poor fit] |  | 
CCCC(=O)N1Cc2ccccc2CC2(CCCN2Cc2cccnc2)C1 (stereo not given) | inconclusive: 79.4 µM [inhibitor, single point] |  | 
CO[C@H]1[C@H](NC(=O)c2cc(C)ccc2C)c2ccccc2C12CCNCC2 | inconclusive: 89.1 µM [inhibitor, single point] |  | 
COc1ccc(-c2ccc(C(=O)NCc3ccc4c(c3)OCO4)cc2)nn1 | inconclusive: 89.1 µM [inhibitor, single point] |  | 
CN(Cc1nc(-c2cccnc2)no1)C(=O)CC1COCCN1 (stereo not given) |  | inactive: 0.121% | 
O=C1NC(=NC2CCCC2)C2(CCN(CC3CC3)C2)N1c1cc(F)cc(F)c1 (stereo not given) | inconclusive: 50.1 µM [inhibitor, partial curve, poor fit] |  | 
O=C(Cc1cccc(F)c1)Nc1cccc(-c2nnc3n2CCCC3)c1 | inconclusive: 56.2 µM [inhibitor, partial curve, poor fit] |  | 
O=C(NCc1ccnc2[nH]ccc12)c1cccc2[nH]ccc12 | inconclusive: 79.4 µM [inhibitor, partial curve, poor fit] |  | 
CC(=O)N1CCN(C(=O)c2ccc3nnc(-c4cccc(C(F)(F)F)c4)n3c2)CC1 |  | inactive: -0.552% [at 172 µM] | 
